Among the data in PMC3989272 are binding values, retold here.

The chains behind the UniProt entries cited, without tags or fusion partners. Where a name states a change or a piece, a line headed by the entry shows the natural chain unless it says otherwise.
UniProt P29476: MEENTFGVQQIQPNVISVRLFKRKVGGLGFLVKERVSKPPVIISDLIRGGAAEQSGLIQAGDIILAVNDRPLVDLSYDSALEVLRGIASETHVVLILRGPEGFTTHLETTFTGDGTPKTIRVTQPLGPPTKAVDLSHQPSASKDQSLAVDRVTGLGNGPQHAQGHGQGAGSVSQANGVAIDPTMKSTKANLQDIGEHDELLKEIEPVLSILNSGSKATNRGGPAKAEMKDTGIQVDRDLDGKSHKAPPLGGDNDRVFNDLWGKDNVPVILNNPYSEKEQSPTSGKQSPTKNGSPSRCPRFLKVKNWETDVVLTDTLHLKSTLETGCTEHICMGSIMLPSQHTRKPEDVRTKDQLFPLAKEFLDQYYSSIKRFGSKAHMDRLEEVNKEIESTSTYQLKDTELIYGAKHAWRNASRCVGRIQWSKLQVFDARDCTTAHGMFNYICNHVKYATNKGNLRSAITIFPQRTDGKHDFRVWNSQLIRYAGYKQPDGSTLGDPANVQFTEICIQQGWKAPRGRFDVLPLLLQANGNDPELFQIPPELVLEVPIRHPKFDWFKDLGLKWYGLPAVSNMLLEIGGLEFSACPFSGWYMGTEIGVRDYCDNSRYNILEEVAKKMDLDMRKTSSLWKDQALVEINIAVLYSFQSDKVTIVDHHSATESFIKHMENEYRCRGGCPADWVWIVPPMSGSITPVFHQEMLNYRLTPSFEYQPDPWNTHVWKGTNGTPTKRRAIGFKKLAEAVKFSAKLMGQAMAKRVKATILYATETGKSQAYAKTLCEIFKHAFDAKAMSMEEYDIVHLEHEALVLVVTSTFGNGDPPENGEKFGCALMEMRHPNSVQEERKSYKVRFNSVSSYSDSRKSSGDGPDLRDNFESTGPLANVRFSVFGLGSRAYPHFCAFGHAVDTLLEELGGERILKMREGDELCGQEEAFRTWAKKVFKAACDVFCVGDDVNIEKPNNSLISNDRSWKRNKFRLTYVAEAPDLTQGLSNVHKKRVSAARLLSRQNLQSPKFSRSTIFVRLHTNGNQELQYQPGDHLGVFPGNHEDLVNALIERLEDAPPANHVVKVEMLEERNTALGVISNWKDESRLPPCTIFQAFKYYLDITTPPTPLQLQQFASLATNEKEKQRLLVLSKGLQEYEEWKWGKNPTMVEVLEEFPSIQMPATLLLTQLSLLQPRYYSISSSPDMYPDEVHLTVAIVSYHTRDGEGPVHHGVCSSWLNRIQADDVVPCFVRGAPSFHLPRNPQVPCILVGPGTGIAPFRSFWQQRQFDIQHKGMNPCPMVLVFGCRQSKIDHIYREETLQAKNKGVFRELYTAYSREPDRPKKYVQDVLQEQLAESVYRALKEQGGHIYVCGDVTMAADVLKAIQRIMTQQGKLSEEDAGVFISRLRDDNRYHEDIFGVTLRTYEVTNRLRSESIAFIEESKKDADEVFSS

For assay [1], the target named is T1, recombinant pleckstrin homology domain of PKD1 fused to GST (UniProt Q62101).
T1 sequence: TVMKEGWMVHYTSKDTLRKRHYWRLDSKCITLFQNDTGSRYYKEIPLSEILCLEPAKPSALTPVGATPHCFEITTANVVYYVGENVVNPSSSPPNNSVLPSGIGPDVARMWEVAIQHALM
Description: pull-down; rat brain extracts (500 µg) incubated for 2 h at 4°C with GST or GST-PH pre-adsorbed onto glutathione-agarose beads; nNOS detected by Western blot; only the target purified. (In western blotting, separated proteins are transferred to a membrane and probed.)

The target in assay [2] is T2, shorter C-terminal sequence of PKD1-Ser916Glu (Pro-591 to Leu-918), two-hybrid bait (UniProt Q62101).
T2 sequence: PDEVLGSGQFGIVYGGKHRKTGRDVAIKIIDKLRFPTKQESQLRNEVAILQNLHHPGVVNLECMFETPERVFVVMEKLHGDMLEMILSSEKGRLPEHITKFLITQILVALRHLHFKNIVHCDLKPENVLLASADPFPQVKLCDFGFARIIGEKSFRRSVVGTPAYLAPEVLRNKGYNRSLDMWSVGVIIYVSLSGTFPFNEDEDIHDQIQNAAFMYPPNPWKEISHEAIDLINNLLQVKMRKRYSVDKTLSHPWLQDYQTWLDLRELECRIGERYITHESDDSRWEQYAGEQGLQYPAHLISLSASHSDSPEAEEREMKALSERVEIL
The assay can be described thus: two-hybrid; one to one yeast two-hybrid; baits fused to the GAL4 DNA-binding domain, nNOS preys fused to the GAL4 activation domain (pGAD); growth on Leu-/Trp-/His- plates with 12 mM 3-amino triazole and X-Gal assay.

Assay [3] addresses T3, shorter C-terminal sequence of wild-type PKD1 (Pro-591 to Leu-918), two-hybrid bait (UniProt Q62101).
T3 sequence: T2 sequence with E326S
Described as above.

Assay [4] concerns the target T4, C-terminus of rat CAPON (rat).
T4 sequence: ELGDSLDDEIAV
The description is as above.

The target of another assay is T5, full-length α-syntrophin (UniProt Q61234).
T5 sequence: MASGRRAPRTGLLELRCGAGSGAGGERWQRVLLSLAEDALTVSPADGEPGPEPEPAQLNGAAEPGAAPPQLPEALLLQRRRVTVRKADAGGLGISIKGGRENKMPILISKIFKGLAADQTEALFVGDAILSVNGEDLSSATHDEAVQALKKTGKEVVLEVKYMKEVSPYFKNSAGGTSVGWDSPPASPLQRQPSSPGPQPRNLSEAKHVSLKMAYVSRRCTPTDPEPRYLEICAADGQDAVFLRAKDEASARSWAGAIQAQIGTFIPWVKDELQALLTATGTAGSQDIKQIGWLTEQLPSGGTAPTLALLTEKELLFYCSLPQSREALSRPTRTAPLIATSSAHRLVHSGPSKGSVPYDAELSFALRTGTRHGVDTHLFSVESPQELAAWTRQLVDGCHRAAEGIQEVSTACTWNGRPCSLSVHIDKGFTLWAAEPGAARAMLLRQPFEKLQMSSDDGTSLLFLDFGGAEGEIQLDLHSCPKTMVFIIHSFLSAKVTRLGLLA
Described as above.

The target in assay [5] is T1, recombinant pleckstrin homology domain of PKD1 fused to GST. The assay can be described thus: pull-down; 0.5, 1 and 5 µg of purified nNOS incubated for 2 h at 4°C with 8 µg of GST or GST-PH pre-adsorbed onto glutathione-agarose beads; nNOS detected by Western blot; both purified.

Residue numbers refer to the chain shown, from its start. These are yes or no findings as the source states them, for the method shown. For some of these results: Binding seen in cells or lysates may run through a third protein. Some entries that bind do so weakly or less than the wild type. For some of these results: Where a sequence is shown, tags or fusion partners need not be part of it.

For the substance “endogenous neuronal nitric oxide synthase (nNOS) (from UniProt P29476 1-1429) (enzyme)”, the binding entry in assay [1] is “binds”.
Turning to “nNOS PDZ domain (aa 1–102), two-hybrid prey (from UniProt P29476 1-102) (domain or fragment)”, the binding entry in assay [2] was “no binding”; in assay [3], “no binding”; in assay [4] it was “binds”; with full-length α-syntrophin it was “no binding”.
Regarding “nNOS PDZ domain with the beta-hairpin extension (aa 1–131), two-hybrid prey (from UniProt P29476 1-131) (domain or fragment)”, the binding entry in assay [2] was “no binding”; in assay [3], “no binding”; in assay [4], “binds”; with full-length α-syntrophin, “binds”.
Regarding “purified full-length rat nNOS (from UniProt P29476 1-1429) (enzyme)”, the binding entry in assay [5] is “binds”.
